Experimental data: the RNAGym collection of RNA variant scans (doi:10.7554/elife.90254)
The source gives no read counts; variants with many changes may rest on few reads.

B1: LINE1-full (parent)
chain: UACGUAGGUGGUUUUCCCCUGAUAGUGCUAAGGGGGCCUGGAAGUUUGGACUGGGCAGAGCUCAACACAGCGUGGCAAAGUGGCUGUGGCUAGACUGCCUCUCUGGAUUCCUCGUCACUCAGCAGGGCAUCUCUGAGAGAAAUGCC

Variants of: B1
Assay: self-cleavage, relative activity (ratio to wild type); higher = more cleavage; in vitro, sequencing; the parent is a self-cleaving ribozyme

| Variant | self-cleavage |
| --- | --- |
| U5C C61A U96C G114A A136U A138G | 0.12 |
| A78G A79G A117G A142G | 0 |
| U39C A64U U119C U130C | 0.36 |
| A30G U62A U100C C110U U119C | 0.22 |
| A43G U45C A57U U62C A65U A124G C128U G139A U143C | 0 |
| U29A A50G C98A | 0.08 |
| U20G A42U A65G G75U U112C U134C | 0.05 |
| U39C A64U U132C A142G | 0.51 |
| U15C C37U U45C U102A | 0.85 |
| A43G U52A A57G | 0.94 |
| U14C U52A U119C A136G | 1.02 |
| U87C U100C A136U | 0.76 |
| U13A U14C U119C | 0.97 |
| U12G U62C A69U U85C U100C C120U | 0.51 |
| A50G U73C C113A U132A | 1.26 |
| A6G U12C A79G | 1.11 |
| A2G U26A G89A C113U A142C | 0.12 |
| C28A U73C A77U G83A U85C G125A | 0.06 |
| A78G U85C U109C U119A | 0 |
| A42G A50G U85A A107C | 0 |
| A42G U62A A124G | 0.04 |
| U26C U87C U115C | 1.15 |
| A2G A59G G74C A124U | 0 |
| A43G U62A G74U | 0.04 |

| Variant | self-cleavage |
| --- | --- |
| U26C U29A A30G C68U U108C | 0.7 |
| U26A A94G U132C G144A | 0.4 |
| A2G A30G G139A A141G | 0.69 |
| U26C U119A A140G | 1.17 |
| U47C U130C A138G | 1.61 |
| A22G G33A A59G U132C | 0.16 |
| A67G C76U C84U | 0.06 |
| U12C U52C U62C U81A A121G A124G G127A | 0 |
| G34A G49A A77G | 1.27 |
| U23C A94G A140C | 0.29 |
| U47C A78G U112C | 0 |
| C61A A65G U100C | 0.06 |
| U62C U115C A117U | 0.05 |
| A64C A65U G88A | 0.03 |
| U13A U119C A141G | 1.46 |
| A6G U13C U14C C66U A136U | 0.53 |
| U13C A107G U112C | 1.44 |
| U15G U29C A65G U85A G122U U130A | 0.12 |
| U14C U26A U46A U62C A79G U112C | 0.13 |
| U29A C103A U112C C128U | 1.3 |
| U15A U96G A141G | 0 |
| G33U U45C U109C A121G G127U | 2.6 |
| U62C U112C U130C | 0 |
| U108C A124G G126U | 2.07 |

| Variant | self-cleavage |
| --- | --- |
| U14C U52A A78G A129U | 1.44 |
| U9C U62A A141G | 0.16 |
| U26C A124G U143C | 1.33 |
| A50G U73C U132C | 2.3 |
| A2G A31G U62G | 0.82 |
| C16U U104C U134C | 2.59 |
| A6G C120A G144A | 0.6 |
| A6U G36C A121G A129G | 0.77 |
| U39C C111U G114A | 0.85 |
| G40A U45A G75A U132C | 0.75 |
| U102G G126A C128U | 0.38 |
| U9A U13C A43U C98U | 0.53 |
| G48U A94C U143A | 0.02 |
| C19U A24U A50G A121U A124G | 0.38 |
| U15C A50G U62C | 0.06 |
| A50U U115A C146U | 0.6 |
| A6U U9A A79U U81A U119A A141G | 2.08 |
| U52A U96A A136G | 0.1 |
| U12G A22G A65U A138G | 0 |
| U23C G35U G54A A107G U115A | 0.32 |
| U46C U73C C145A | 2.49 |
| A69G U87A U108C | 0.03 |
| A31C U52C U73A | 2.12 |
| U1C A78U A136G | 1.34 |

| Variant | self-cleavage |
| --- | --- |
| A22U A65G U134C | 0.26 |
| A59U A94G C116U G122A | 2.1 |
| U15C G33U A67G C128U | 0.69 |
| A79G A92U A140G | 0.41 |
| A117G U119C A129G | 0 |
| U9C U39C A59G A69U U104A A141G | 0 |
| U14C U52C C98G U102C U104C U115A A136U | 0 |
| U87A U115A A140G | 0.08 |
| C17G A22G A94G | 0.42 |
| U46C G54A U96A | 0.04 |
| U47C U104A A140G | 0.44 |
| G32U U45C U115C A124U | 1.37 |
| U14C U115C U119A | 1.49 |
| U29G A77U U112C | 1.88 |
| U13C C16A A24G U39A U73C A117U U143C | 1.47 |
| U73A U130A A138U | 1.36 |
| U1A U87C U104A A129G | 0.46 |
| U39A A121G G135A | 1.87 |
| U9A A65G A78G | 0 |
| A57G U109C U115C | 0 |
| A59G A107G U132C | 0.2 |
| A31C A57U G74A A78G A124U A136G | 0.26 |
| U20C U39C A129G | 1.07 |
| A43G A57G G89U | 0.06 |

| Variant | self-cleavage |
| --- | --- |
| A59G A69U U87A C116A U119A A138G U143A | 0.01 |
| U12G A64U A136G | 0.7 |
| A22G U62C A79U | 0.12 |
| A6G U29A U47A | 1.34 |
| U81C A138G C146U | 1.55 |
| U13C U119C A136U | 2.36 |
| A124G U134A A142U | 0.61 |
| G74A A78G U104A | 1.12 |
| G54U A117U G126A | 0.86 |
| A43G U46A C98A U130C | 0.18 |
| U45C U85A A136G A142G U143A | 0 |
| U29G U62C U112A | 0.09 |
| U12C A50U C123U U132C | 0.83 |
| U12C U15G A31U U112A U119A C120U A121U A141U | 0.37 |
| A67G U109C A117U | 0.33 |
| U13C A94G U108C | 2.16 |
| U45C A57G C68U U87A | 0.07 |
| A24G A59G U73A | 0.3 |
| U20C U62C C90G U102A A136G | 0.05 |
| U12C U26C A138G | 1.96 |
| U15C U96C C128U | 0.13 |
| U1G U15C C37U | 1.89 |
| U13C A22G G40A C71A A140G | 0.04 |
| U29C A67G A140G | 0 |

| Variant | self-cleavage |
| --- | --- |
| A59G U132C A142G | 0.3 |
| U62A G89C U96C U104C C116U A124G A140G | 0 |
| U1C A78G U100C U102C A138G | 0 |
| U13C A57U C61A A65G | 0.13 |
| U45C U62G C113A | 0.03 |
| U26A U104A U109C | 0.45 |
| U46C A78G U134C C145G | 1.84 |
| G8A U15C U39C C146U | 1.45 |
| G36A A50G G58U | 0.02 |
| U45C A69G G137A | 1.56 |
| U14C A94G U115C A124U A136G | 0 |
| U39C C51U U132C | 0.84 |
| C71A U73G A140G A142U | 0.03 |
| U1C U14G A42U U52A A77G A124G | 0.31 |
| U26C A59U U108C | 0.92 |
| G27A A43G G74A | 1.53 |
| U9C A43U U47C A64U | 1.12 |
| U29A A30G C56U U112G | 0.09 |
| U1C G32A C71U U96A U102C | 0.01 |
| A24C A79G A138G | 0.68 |
| A57U C76U G89U | 0.01 |
| A77G U85A U119A | 0.07 |
| A79G C84U U115C | 0.15 |
| A22G A79G U102C A140G | 0.61 |

| Variant | self-cleavage |
| --- | --- |
| U12C U46C U47A U119A A121G | 1.65 |
| U62C A117G U132C | 0 |
| G25C A42G A77G G93U | 0.12 |
| U15A A77U U81C | 1.09 |
| A64U U109C C131A | 0.42 |
| U12C U81C U134C A140G | 0.54 |
| U20C U81C U143C | 1.18 |
| U13C A94G G97A | 0.13 |
| A43G A69G U81A U134C | 0.19 |
| A67G U85A A107G A142G | 0.24 |
| U14C U96G U109C | 0.35 |
| A43G U85C A117U | 0.11 |
| U14C U26C U96C | 0 |
| A65U U91C U115C | 0.08 |
| A64G U96C U143C | 0.1 |
| U73A U81A U91C U130C | 1 |
| U26C C90A A142G | 0.02 |
| U29A U96C U102C | 0 |
| U62A U85A A117U U134A | 0.03 |
| U14C A31G U119A | 1.23 |
| U96C A138G A140U | 0.24 |
| C19U U20A U85A | 0.05 |
| G86A A94G U115A | 0.04 |
